{"source": "the supplement of paper PMC3334620", "note": "Whole data set: some 33,000 sequences, median “E-score (-0.5 to 0.5)” near -0.016, cut for the highest 2% near 0.31. The list shows a part of the results.", "data": [{"biological_target": "Cst6 (UniProt P40535)", "experiment": "PBM E-score (8-mer binding enrichment) (E-score (-0.5 to 0.5)); higher = stronger / more preferred TF binding; most listed sequences are background and not binding sites", "settings": "protein concentration: 200 nM; construct: GST-DNA-binding domain", "summary_of_the_method": "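The E-score, a modified Wilcoxon-Mann-Whitney statistic, was computed by the Universal PBM Analysis Suite for every ungapped eight-base word pooled with its reverse complement. Scans behind it were normalised with masliner after bound GST-tagged yeast transcription factors were detected with fluorescent anti-GST. The proteins, at about 100-200 nM, had been applied to universal all-10-mer Agilent arrays made double-stranded by primer extension.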", "values": [{"sequence": "ATACTCGC", "PBM E-score": -0.132}, {"sequence": "GATCACGA", "PBM E-score": 0.0488}, {"sequence": "CGCGTAGC", "PBM E-score": 0.0231}, {"sequence": "CCCTACGG", "PBM E-score": -0.118}, {"sequence": "CGAGCTCG", "PBM E-score": 0.0607}, {"sequence": "GGCGTAGA", "PBM E-score": 0.0755}, {"sequence": "CTAACACC", "PBM E-score": -0.148}, {"sequence": "AATTCGCA", "PBM E-score": 0.149}, {"sequence": "GGGCTCAA", "PBM E-score": -0.174}, {"sequence": "CAGAGGTA", "PBM E-score": 0.0151}, {"sequence": "GGATCCAC", "PBM E-score": -0.208}, {"sequence": "GATGCCGC", "PBM E-score": 0.243}, {"sequence": "CTGCCTCA", "PBM E-score": -0.145}, {"sequence": "GATTAGCA", "PBM E-score": -0.00515}, {"sequence": "TCGCAACA", "PBM E-score": 0.0733}, {"sequence": "ATTGACCA", "PBM E-score": 0.0509}, {"sequence": "CGCTAATA", "PBM E-score": 0.109}, {"sequence": "GTTAAACA", "PBM E-score": 0.162}, {"sequence": "AGCCCCGC", "PBM E-score": -0.0935}, {"sequence": "AAGTGGCA", "PBM E-score": -0.0565}, {"sequence": "GATGCCCC", "PBM E-score": -0.211}, {"sequence": "AAACAAGT", "PBM E-score": 0.141}, {"sequence": "CTGGGGCC", "PBM E-score": -0.361}, {"sequence": "GCAATGGA", "PBM E-score": 0.0982}, {"sequence": "ACTACCGG", "PBM E-score": -0.272}, {"sequence": "AACAGGTG", "PBM E-score": -0.054}, {"sequence": "CCAAATCG", "PBM E-score": 0.0121}, {"sequence": "CCTCAGAC", "PBM E-score": -0.0304}, {"sequence": "GGGGTACA", "PBM E-score": -0.335}, {"sequence": "ACAATACC", "PBM E-score": 0.199}, {"sequence": "ACCACATC", "PBM E-score": 0.114}, {"sequence": "ATGTTGAG", "PBM E-score": 0.0156}, {"sequence": "AACTTTGG", "PBM E-score": 0.0661}, {"sequence": "GCAATTCC", "PBM E-score": -0.0773}, {"sequence": "AGCAGTAC", "PBM E-score": -0.0567}, {"sequence": "ACCACGTC", "PBM E-score": 0.102}, {"sequence": "CTCTCGTA", "PBM E-score": -0.113}, {"sequence": "GCACCCCC", "PBM E-score": -0.304}, {"sequence": "ACCGTGAT", "PBM E-score": 0.118}, {"sequence": "ACCGGGTG", "PBM E-score": -0.19}, {"sequence": "ACCTGACG", "PBM E-score": 0.166}, {"sequence": "GGGGAACC", "PBM E-score": -0.33}, {"sequence": "TGGTCACA", "PBM E-score": 0.0201}, {"sequence": "CTGACCAA", "PBM E-score": 0.00651}, {"sequence": "AGCAACCT", "PBM E-score": -0.053}, {"sequence": "ATTGCACC", "PBM E-score": 0.0773}, {"sequence": "CCTTGATA", "PBM E-score": 0.112}, {"sequence": "ATATTAAT", "PBM E-score": 0.278}, {"sequence": "ATCTAGCA", "PBM E-score": 0.0103}, {"sequence": "GGCGCTTA", "PBM E-score": -0.0518}, {"sequence": "ACGACAAC", "PBM E-score": 0.184}, {"sequence": "ATGTGAAC", "PBM E-score": -0.00899}, {"sequence": "AGCGCTTA", "PBM E-score": 0.0246}, {"sequence": "TAAATTAA", "PBM E-score": 0.127}, {"sequence": "AAAGTAGG", "PBM E-score": 0.157}, {"sequence": "AGAGGCTG", "PBM E-score": -0.377}, {"sequence": "GTTGACTA", "PBM E-score": 0.0191}, {"sequence": "ACATGTAA", "PBM E-score": 0.203}, {"sequence": "GCCTTGGA", "PBM E-score": 0.069}, {"sequence": "AACTCTCT", "PBM E-score": -0.217}, {"sequence": "ACTGCCCG", "PBM E-score": -0.159}, {"sequence": "CTCAAACA", "PBM E-score": 0.165}, {"sequence": "TAGGCCCA", "PBM E-score": -0.194}, {"sequence": "ATATCTGC", "PBM E-score": 0.137}, {"sequence": "ACGATAAA", "PBM E-score": 0.112}, {"sequence": "ACGTCCCT", "PBM E-score": 0.162}, {"sequence": "AGCCGCAT", "PBM E-score": 0.338}, {"sequence": "CTCTAGAC", "PBM E-score": -0.264}, {"sequence": "ACATACTA", "PBM E-score": 0.0612}, {"sequence": "ATGAAAAG", "PBM E-score": -0.0551}, {"sequence": "AACCACCA", "PBM E-score": 0.00505}, {"sequence": "AACGCTTC", "PBM E-score": -0.00173}, {"sequence": "CTAAAGAA", "PBM E-score": 0.11}, {"sequence": "ACCGCGGG", "PBM E-score": -0.115}, {"sequence": "CATCTCGG", "PBM E-score": -0.148}, {"sequence": "ATATGACG", "PBM E-score": 0.472}, {"sequence": "ACCACAGA", "PBM E-score": -0.117}, {"sequence": "AAATCGTC", "PBM E-score": 0.144}, {"sequence": "AGAGCCAG", "PBM E-score": -0.209}, {"sequence": "CACCATTA", "PBM E-score": 0.154}, {"sequence": "ACTGCTTA", "PBM E-score": -0.0493}, {"sequence": "AACAGCCA", "PBM E-score": 0.148}, {"sequence": "CTCTAATA", "PBM E-score": 0.223}, {"sequence": "ACCTCGTG", "PBM E-score": -0.00326}, {"sequence": "ATGTCGTC", "PBM E-score": 0.163}, {"sequence": "ACTTCGCC", "PBM E-score": 0.0981}, {"sequence": "CGAGTTCA", "PBM E-score": -0.0549}, {"sequence": "AAGGATAC", "PBM E-score": -0.169}, {"sequence": "GGGCCTAA", "PBM E-score": -0.282}, {"sequence": "CCTTTACA", "PBM E-score": -0.00965}, {"sequence": "CCACGATA", "PBM E-score": 0.00768}, {"sequence": "AAACTGAA", "PBM E-score": 0.0424}, {"sequence": "ACGACCGG", "PBM E-score": -0.345}, {"sequence": "AAGGGTTC", "PBM E-score": -0.198}, {"sequence": "ACTTATTG", "PBM E-score": 0.106}, {"sequence": "ATTATGTG", "PBM E-score": 0.228}, {"sequence": "AGTAGAGG", "PBM E-score": -0.237}, {"sequence": "TAACTGTA", "PBM E-score": 0.032}, {"sequence": "AGTTACGC", "PBM E-score": 0.0936}, {"sequence": "GCCACGAC", "PBM E-score": -0.0747}, {"sequence": "CTGACCAG", "PBM E-score": -0.148}, {"sequence": "ATAGACGG", "PBM E-score": 0.0397}, {"sequence": "AGCGAGAG", "PBM E-score": -0.0445}, {"sequence": "CTACATCA", "PBM E-score": 0.302}, {"sequence": "TAGTATCA", "PBM E-score": 0.22}, {"sequence": "AGGTGATG", "PBM E-score": 0.271}, {"sequence": "GAAAGGAA", "PBM E-score": -0.0123}, {"sequence": "GCACTGTA", "PBM E-score": -0.00858}, {"sequence": "ATTGGAAC", "PBM E-score": 0.148}, {"sequence": "AATGACCT", "PBM E-score": 0.25}, {"sequence": "CCATGGAA", "PBM E-score": -0.0645}, {"sequence": "GTGTGGAA", "PBM E-score": 0.0515}, {"sequence": "CTCTGTTA", "PBM E-score": -0.00703}, {"sequence": "GGAAGCAA", "PBM E-score": -0.0297}, {"sequence": "GACACGGC", "PBM E-score": 0.291}, {"sequence": "ATCATTTA", "PBM E-score": 0.335}, {"sequence": "CATAAGGC", "PBM E-score": 0.194}, {"sequence": "ATTGCGCG", "PBM E-score": 0.263}, {"sequence": "GAATGCCC", "PBM E-score": -0.16}, {"sequence": "ATGTGGAG", "PBM E-score": -0.0629}, {"sequence": "CCAGATTC", "PBM E-score": -0.266}, {"sequence": "CACGCCCG", "PBM E-score": -0.175}, {"sequence": "TCGCAGCA", "PBM E-score": -0.0127}, {"sequence": "GAAACATC", "PBM E-score": 0.00667}, {"sequence": "ACCTAATC", "PBM E-score": 0.232}, {"sequence": "AAAGATAT", "PBM E-score": 0.174}, {"sequence": "ATGCCTGA", "PBM E-score": -0.141}, {"sequence": "ATTAGCCC", "PBM E-score": 0.00901}, {"sequence": "CTCCCAAG", "PBM E-score": -0.277}, {"sequence": "GTCCTTCA", "PBM E-score": -0.0707}, {"sequence": "CATCCGTC", "PBM E-score": 0.0423}, {"sequence": "AGATTGCC", "PBM E-score": -0.163}, {"sequence": "CGACAATA", "PBM E-score": 0.142}, {"sequence": "TCGCATAA", "PBM E-score": 0.148}, {"sequence": "GTGATACA", "PBM E-score": 0.177}, {"sequence": "AAACCCTG", "PBM E-score": -0.134}, {"sequence": "CACTCGGG", "PBM E-score": -0.209}, {"sequence": "CCCCAGCG", "PBM E-score": -0.216}, {"sequence": "TACCCCAA", "PBM E-score": -0.11}, {"sequence": "AGGTGCTG", "PBM E-score": -0.194}, {"sequence": "AAAATTAG", "PBM E-score": 0.159}, {"sequence": "AACGAGAC", "PBM E-score": -0.101}, {"sequence": "CATACAAA", "PBM E-score": 0.235}, {"sequence": "AATACAGT", "PBM E-score": 0.0826}, {"sequence": "CTCACGTA", "PBM E-score": -0.00865}, {"sequence": "AAGTTTAA", "PBM E-score": 0.00739}, {"sequence": "CGAACGTC", "PBM E-score": 0.129}, {"sequence": "AAAGGGTT", "PBM E-score": -0.0393}, {"sequence": "ACATACAA", "PBM E-score": 0.109}, {"sequence": "GACCTGCA", "PBM E-score": -0.169}, {"sequence": "AGAGCGGA", "PBM E-score": -0.0178}, {"sequence": "AATCACCT", "PBM E-score": 0.13}, {"sequence": "AAGGGTCT", "PBM E-score": -0.139}, {"sequence": "CTTGGATA", "PBM E-score": -0.029}, {"sequence": "ACCAGTAG", "PBM E-score": -0.096}, {"sequence": "ATTGGCGA", "PBM E-score": -0.0278}, {"sequence": "GTTTAGGA", "PBM E-score": -0.234}, {"sequence": "CTGTACGA", "PBM E-score": -0.0659}, {"sequence": "AGTGTGAG", "PBM E-score": -0.0176}, {"sequence": "CAAATCCA", "PBM E-score": -0.0205}, {"sequence": "CGCCACCG", "PBM E-score": -0.007}, {"sequence": "AAGGACTT", "PBM E-score": -0.296}, {"sequence": "AGCCTCAT", "PBM E-score": -0.119}, {"sequence": "ATCTCATC", "PBM E-score": 0.0588}, {"sequence": "CGAACCCA", "PBM E-score": -0.169}, {"sequence": "AAACTCTC", "PBM E-score": 0.129}, {"sequence": "CATGGTTA", "PBM E-score": 0.161}, {"sequence": "CCTGATCA", "PBM E-score": -0.257}, {"sequence": "CGTCATCC", "PBM E-score": 0.473}, {"sequence": "AAAGGATC", "PBM E-score": 0.0311}, {"sequence": "CCTGGGAA", "PBM E-score": -0.136}, {"sequence": "CCGATTCG", "PBM E-score": 0.123}]}]}
